Laboratory results reported in paper PMC6919601, “Identification of Plasmodium dipeptidyl aminopeptidase allosteric inhibitors by high throughput screening” (PLoS ONE, 2019).
The campaign covered roughly 110,000 compounds. About 230 (0.21%) showed an effect of 50% or more. The list shows a part of the results.

Target: DPAP1 (Plasmodium falciparum, UniProt Q8IIJ9)
Assay: primary screen, percent inhibition; read by cleavage of a fluorogenic dipeptide substrate; higher = more effect of the substance
Design: species or system P. falciparum D10 trophozoite lysates; single well
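Note: 30 min substrate incubation versus DMSO and 10 µM JCP410 controls.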

Chain of DPAP1 (Q8IIJ9 whole entry, looked up): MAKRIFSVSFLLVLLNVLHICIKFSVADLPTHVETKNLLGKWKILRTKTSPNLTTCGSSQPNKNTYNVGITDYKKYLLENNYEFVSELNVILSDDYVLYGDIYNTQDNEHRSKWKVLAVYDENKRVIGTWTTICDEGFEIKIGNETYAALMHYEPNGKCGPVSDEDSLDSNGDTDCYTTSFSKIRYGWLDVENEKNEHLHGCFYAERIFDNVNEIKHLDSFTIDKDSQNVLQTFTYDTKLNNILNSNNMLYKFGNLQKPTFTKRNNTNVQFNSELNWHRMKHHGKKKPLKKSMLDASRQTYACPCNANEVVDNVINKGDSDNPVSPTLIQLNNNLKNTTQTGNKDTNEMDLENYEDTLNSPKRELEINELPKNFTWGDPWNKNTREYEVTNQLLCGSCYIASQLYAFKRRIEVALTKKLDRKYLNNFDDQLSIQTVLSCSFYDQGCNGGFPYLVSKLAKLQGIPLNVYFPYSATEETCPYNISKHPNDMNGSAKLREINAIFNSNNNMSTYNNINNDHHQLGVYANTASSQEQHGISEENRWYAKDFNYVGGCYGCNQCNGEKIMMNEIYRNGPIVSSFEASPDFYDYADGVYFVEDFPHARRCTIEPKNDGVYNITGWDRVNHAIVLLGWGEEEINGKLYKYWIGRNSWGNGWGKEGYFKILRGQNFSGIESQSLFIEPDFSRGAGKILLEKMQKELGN

Point of comparison: `COC(=O)[C@]1(C#N)C(C)(C)[C@@]1(C#N)C(=O)OC`, “% Inhibition @ 10 uM” value -2.66%. Against it:
- CCOC(=O)N1CCN(C(=O)CSc2c3c(nc4cc(Cl)ccc24)CCCC3)CC1 — higher, -0.0115%
- COc1ccc(OC)c(C2C3=C(O)CC(C)(C)CC3=NC(C)=C2C(=O)OCCOc2ccccc2)c1 (stereo not drawn) — higher, 15.8%
- Cc1ccc(-n2c3c(c(=O)[nH]c2=O)C(NC(=O)c2ccccc2F)(C(F)(F)F)C(=O)N3)cc1 (stereo not drawn) — higher, 1.57%
- O=c1ncn(-c2cccc(Cl)c2)c2ccccc12 — higher, -1.51%
- CCN(CC)S(=O)(=O)c1ccc(NC(=O)CCc2ccccc2)cc1 — higher, -1.49%
- O=C(NCC1CCCO1)c1ccc(C(=O)NCC2CCCO2)cc1 (stereo not drawn) — lower, -12.1%
- O=C(CCn1nc(-c2ccccc2)ccc1=O)N1CCN(Cc2ccccc2)CC1 — higher, -0.0542%
- O=S(=O)(c1ccc(-c2ccc(S(=O)(=O)N3CCOCC3)cc2)cc1)N1CCOCC1 — higher, 4.08%
- CCOC(=O)N1CCC(/N=c2/c(N3CCC(Cc4ccccc4)CC3)c(O)c2=O)CC1 — lower, -3.21%
- Fc1ccccc1-n1c(S)nnc1CN1CCSCC1 — higher, -1.37%
- O=C(Nc1ccc(S(=O)(=O)NC2CCCCC2)cc1)c1ccc(Br)o1 — higher, 1.89%
- C/C(=N\c1ccc(/N=C(\C)C2=C(O)CC(C)(C)CC2=O)cc1)C1=C(O)CC(C)(C)CC1=O — higher, 3.46%
- COc1ccccc1CNC(=O)C1CCC(C/N=c2/c(N3CCCC3)c(O)c2=O)CC1 (stereo not drawn) — higher, 4.4%
- COc1ccccc1NC(=O)c1ccc(OC)c(OC)c1 — higher, 1.41%
- OCCN1CCN(C2Cc3ccccc3Sc3cc(Cl)c(F)cc32)CC1 (stereo not drawn) — lower, -8.38%
- NNC(=O)CCn1c2c(c3ccccc31)CCCCC2 — higher, 4.22%
- CC(NC(=O)C1CCC(CNS(=O)(=O)c2cccc3nsnc23)CC1)c1ccccc1 (stereo not drawn) — higher, -2.25%
- Cc1ccc(SCC(=O)Nc2ccc(C)c(C)c2)cc1 — higher, -0.413%
- O=C(O)c1ccc(Br)c(S(=O)(=O)N2CCCCCC2)c1 — higher, 0.526%
- Cc1cc(Cl)ccc1-n1c(S)nnc1CCN1CCN(C)CC1 — higher, 7.15%
- CCOc1ccc(C(=O)Nc2sc3c(c2C#N)CCCC3)cc1 — lower, -4.4%
- CCc1nc2ccccc2c(NC(=O)CN(C)C)c1C — higher, 0.266%
- CC(C)C(=O)N1CCN(c2ccc(NC(=O)c3cccnc3Cl)cc2Cl)CC1 — higher, -1.61%
- Cc1ccccc1C1CC(=O)NC2=C1C(=O)CC(c1ccccc1Cl)C2 (stereo not drawn) — higher, 0.205%
- Cc1ccc(C)c(Cn2c(C(=O)O)c(CNCCC(C)C)c3ccccc32)c1 — higher, 3.54%
- N#Cc1ccccc1OCC(=O)N1CCN(C(=O)c2ccco2)CC1 — higher, 0.0198%
- CCc1cccc(NC(=O)C2CC=CCC2C(=O)O)c1 (stereo not drawn) — higher, 2.09%
- Cc1ccnc(NC(=O)Nc2cn(C)c(=O)c3ccccc23)c1 — higher, 5.15%
- Oc1ccccc1C1=NC(c2ccc(Br)cc2)NC(c2ccccn2)C1 (stereo not drawn) — higher, 1.02%
- CC(C)OCCCNC(=O)CCc1nc(-c2ccccc2F)no1 — higher, -2.19%
- CCc1ccc(CN2CCN(C(=O)c3ccc(OC)c(OC)c3)CC2)cc1 — higher, -1.42%
- CCOC(=O)c1sc(NC(=O)CSc2nc(N)cc(O)n2)nc1C — higher, 6.38%
- CCCn1c2ccccc2c2cnn(CC(=O)NCc3ccc(C)cc3)c(=O)c21 — higher, -1.96%
- CCOC(=O)c1c(C)n(C)c2ccc(OCc3ccccc3)cc12 — higher, 0.968%
- O=c1c2c3n(c4ccccc4c(=O)n3c3ccccc13)CC2 — lower, -5.46%
- Cc1nn(CC(=O)NCc2ccccn2)c(=O)c2cc3sccc3n12 — higher, -1.58%
- CCOc1ccccc1NC(=O)CC1Sc2ccccc2NC1=O (stereo not drawn) — higher, -0.424%
- N#Cc1c(-c2ccccc2Cl)c(C#N)c2nc3ccccc3n2c1N — higher, 21.6%
- COc1ccc(OC)c(C2Nc3cccc4cccc(c34)N2)c1 — higher, 0.751%
- CC1CC(=O)C2=C(C1)OC(N)=C(C#N)C2c1ccc(-c2ccccc2)cc1 (stereo not drawn) — higher, 22.4%
- COc1ccc(/C=C2\SC(=O)N(CN3CCCC3)C2=O)cc1 — lower, -3.26%
- CCOC(=O)c1cc2c(=O)n3ccccc3nc2n(C(C)C)/c1=N\C(=O)C(CC)c1ccccc1 (stereo not drawn) — higher, 4.37%
- CCOC(=O)c1c(NC(=O)COc2cccc(Cl)c2)sc2c1CCC(C)C2 (stereo not drawn) — higher, 1.58%
- Cc1cc(NC(=O)c2cc(-c3ccc(F)cc3)on2)n(-c2ccccc2)n1 — higher, -0.601%
- O=C(CNS(=O)(=O)c1cccs1)N1CCC(Cc2ccccc2)CC1 — higher, -1.31%
- Cc1ccnc(O)c1 — higher, -1.08%
- O=C(c1ccc2c(c1)OCO2)N1CCC(CN2C(=O)c3cccc4cccc(c34)C2=O)CC1 — lower, -6.57%
- Cc1cc(S(=O)(=O)Nc2ccc(O)cc2)ccc1Cl — higher, -1.29%
- CCOC(=O)c1cc(C)n(CC2CCC(C(=O)Nc3nccs3)CC2)c1C (stereo not drawn) — lower, -3.47%
- O=C(NCCCNC(=O)[C@@H]1C[C@@H]1c1ccccc1)[C@H]1C[C@H]1c1ccccc1 — higher, 2.95%
- Cc1ccc2c(c1)c1c3n2CCN(CC(C)O)C3CCC1 (stereo not drawn) — higher, 2.47%
- O=C(COc1ccc2c(c1)C(=O)CC1(CCCCC1)O2)NCc1ccc(F)cc1 — higher, 1.37%
- O=C(CN1C(=O)c2ccccc2C1=O)Oc1ccc([N+](=O)[O-])cc1 — lower, -4.06%
- CCOC(=O)N1CCC(NC(=O)c2cc(-c3ccc(F)cc3)[nH]c2C)CC1 — higher, 6.06%
- CCOc1ccc(CNC(=O)CSCc2cnn(-c3ccccc3)c2-n2cccc2)cc1 — higher, 3.24%
- N#CC1=C(N)Oc2c(O)nc(S)nc2C1c1ccccc1 (stereo not drawn) — lower, -8.12%
- CC(=O)c1[nH]c2ccccc2c1-c1ccccc1 — higher, 0.132%
- Cc1occc1-c1nc(-c2ccccc2)no1 — higher, -0.48%
- CC1(C)CC(=O)C2=C(C1)N=C(S)C(C#N)C2c1ccc(Br)cc1 (stereo not drawn) — higher, 20.1%
- Clc1ccc(-n2ncc3c(NCc4ccccn4)ncnc32)cc1 — lower, -7.64%
- CCOc1nonc1NC(=O)CSc1nc2ccccc2s1 — lower, -3.26%
- COc1ccc(C(=O)NC(CC(=O)O)c2ccc(OC)c(OC)c2)cc1OC (stereo not drawn) — higher, -1.47%
